# Assay results as given in PubChem BioAssay AID1508623 (National Center for Advancing Translational Sciences (NCATS), 2021).
# The campaign covered roughly 48,000 compounds. About 450 (0.94%) were called active. Roughly 19% stayed inconclusive and do not appear here. The call rests on the fitted dose curve; in most records, active means well fitted inhibition curve with a large enough effect; inconclusive means small, poorly fitted or top-dose-only effect; inactive means no such curve, though single readings can be large or run the other way. The list shows a part of the results.
# Test: Primary qHTS for Identification of Small Molecule Inhibitors of Huntingtin Promoter Activity; further: nearly all actives have a fitted effect of over 50% in size
# Conditions: HEK293 HTT promoter firefly luciferase reporter (activity 0% = vehicle and -100% = no light), 24 h; series mostly up to 57.5 µM; activity change, negative = inhibition: at the top concentration
# Source text: Assay Provider: Russell L. Margolis M.D.
# Department Neurology, Johns Hopkins University School of Medicine, Baltimore, MD
# Huntington's Disease (HD) is a neurodegenerative disorder caused by a CAG repeat expansion in exon 1 of huntingtin (HTT). While there are currently no disease-modifying treatments for HD, recent efforts have focused on development of nucleotide-based therapeutics to lower HTT expression. As an alternative to siRNA or oligonucleotide methods, we hypothesized that suppression of HTT expression might be accomplished by small molecules that either (1) directly decrease HTT expression by suppressing HTT promoter activity or (2) indirectly decrease HTT expression by increasing the promoter activity of HTT-AS, the gene antisense to HTT that appears to inhibit expression of HTT.
# We developed and employed a high throughput screen for modifiers of HTT and HTT-AS promoter activity using luminescent reporter HEK293 cells; of the 52,041 compounds tested, we identified 898 replicable hits. We used a rigorous stepwise approach to assess compound toxicity and the capacity of the compounds to specifically lower huntingtin protein in 5 different cell lines, including HEK293 cells, HD lymphoblastoid cells, mouse primary neurons, HD iPSCs differentiated into cortical-like neurons, and HD hESCs. We found no compounds which were able to lower huntingtin without lowering cell viability in all assays, though the potential efficacy of a few compounds at non-toxic doses could not be excluded.
# SEQUENCE No. (1, 2, 3, etc.); […] (e.g., Cells, Incubation, Reagent, etc.); VALUE and DESCRIPTION.
# 1; Reagent; 4 uL; 2,500 Hek293 luciferase reporter cells per wells
# 3; Compound; 23 nL; Control inhibitor / compound library
# 5; Reagent; 2.5 uL; Firefly Luc reagent; Dual-Glo Luciferase Reporter Assay System (Promega)
# 6; Time; 10 min; room temperature incubation
# 7; Detection; Luminescence; FLuc
# NOTES (numbers refer to sequence above)
# 1; High-throughput screening, measuring luminescence from a Hek293 luciferase reporter, was performed in 1,536 well white-walled tissue-culture treated plates. 2,500 cells were plated in 4 µL of Opti-MEM per well using a Multidrop Combi Reagent Dispenser (ThermoFisher).
# 2; Assay plates were cultured for 24 hours.
# 3; Control inhibitor (PTC124; final concentration of 50 uM) and compound library (at final concentrations of 460 nM - 57.5 uM) were added to the assay plate using the Kalypsis Pintool Robotic System equipped with 1536 pinheads.
# 4; Cells were then incubated for 24 hours at 37 degrees C prior to luminescence measurements.
# 5; In all cases, luminescence was measured using the Dual-Glo Luciferase Reporter Assay System (Promega) following the manufacturer's instructions.
# 6; Room temperature incubation.
# 7; Luminescence signal was obtained using the PerkinElmer ViewLux plate reader. Results were normalized to vehicle control (0% activity) and zero RLU (-100% activity).
# Potency means the concentration at half of the fitted maximal effect.
SMILES,"activity change, negative = inhibition",Potency
COc1cc(OC)cc(N2C(=O)N(Cc3ccc(C(C)(C)C)cc3)c3ccccc3S2(=O)=O)c1,inactive: -13.4%,–
COc1ccc(S(=O)(=O)N2CCC(C(=O)Nc3ccccc3)CC2)cc1OC,inactive: -15.7%,–
CCOC(=O)c1c(C)[nH]c(C)c1S(=O)(=O)NCC(=O)Nc1cccc(C#N)c1,inactive: -21.8%,–
COC(=O)c1scc(-c2ccc(C)cc2)c1S(=O)(=O)N1CCN(c2ccccc2)CC1,inactive: -17.8%,–
Cc1nc2ccc(S(=O)(=O)CCC(=O)Nc3ccc(Cl)cc3)cc2s1,inactive: -16.7%,–
CCOc1ccc(NC(=O)c2c(NCc3cccc(OC)c3OC)sc3c2CCC3)cc1,inactive: -10.3%,–
Nc1c(C(=O)Nc2ccccc2Cl)c2ccccn2c1C(=O)c1ccccc1,inactive: -5.38%,–
COc1ccc(OC)c(CNC(=O)c2ccc3c(c2)c(C)c(C)n3Cc2ccc(Cl)cc2)c1,inactive: -23.4%,–
O=C1NCN(c2ccccc2)C12CCN(CCCC(c1ccc(F)cc1)c1ccc(F)cc1)CC2,inactive: -22.8%,–
CCOC(=O)N1CCN(C(=O)CN(c2ccccc2F)S(=O)(=O)c2ccc(C)cc2)CC1,inactive: -21.1%,–
Cc1cc(N2CCC(C)CC2)nc2ccc(NC(=O)Cc3c(F)cccc3Cl)cc12,inactive: -20.3%,–
Cc1ccc(Cn2cc(S(=O)(=O)c3cccc(Cl)c3)c(=O)c3cc(F)c(N4CCCCC4)cc32)cc1,inactive: -5.42%,–
Cc1cc(C)cc(NC(=O)CSc2nc(=O)n(CCN3CCOCC3)c3c2CCC3)c1,inactive: -14.1%,–
COC(=O)c1c(NC(=O)Cc2coc3cc(C)ccc23)sc2c1CCC2,inactive: -8.09%,–
Cc1ccc(Cl)cc1NC(=O)CSc1nccn1C,inactive: 5.2%,–
CCOC(=O)c1noc2nc(C)n(CC(=O)NC(C)CC)c(=O)c12 (centres undefined),inactive: -1.72%,–
Nc1ccccc1NC(=O)c1ccc(CNC(=O)OCc2cccnc2)cc1,inactive,–
O=C(NCc1cccs1)c1ccc2c(c1)N(Cc1cccc(F)c1)C(=O)c1ccccc1S2,inactive: 0.96%,–
Cc1oc(-c2cccc(Cl)c2)nc1CS(=O)(=O)CC(=O)NC(C)CCc1ccccc1 (centres undefined),inactive: -13.1%,–
O=C(CSc1ccc(-c2cccs2)nn1)Nc1ccccc1C(F)(F)F,inactive: -15.3%,–
Cc1ccc(NC(=O)C2CCCN(C(=O)c3cnn(-c4ccc(F)cc4)c3-n3cccc3)C2)c(Cl)c1 (centres undefined),inactive: -19.6%,–
Cc1ccccc1CNC(=O)C(C)N(c1ccccc1)S(C)(=O)=O (centres undefined),inactive: -10.2%,–
CC1(C)O[C@H]2[C@@H](O1)[C@@H](C(=O)Nc1ccccc1C(F)(F)F)O[C@@H]1OC(C)(C)O[C@@H]12,inactive: -32.3%,–
COc1ccc(-n2c(-c3ccco3)nc3c(cnn3-c3ccc(Cl)cc3)c2=O)cc1,–,active: 35.5 µM

SMILES,"activity change, negative = inhibition",Potency
O=C(CCC1N=C2c3ccccc3N=C(SCc3ccc(F)cc3)N2C1=O)NCCc1ccccc1 (centres undefined),inactive: -28.5%,–
COc1ccc(Cl)cc1NC(=O)C(C)Sc1nc2c(c(=O)[nH]1)CCCC2 (centres undefined),inactive: -18.9%,–
CCCc1nn2c(=O)cc(COC(=O)c3ccccc3NC(=O)COc3ccccc3)nc2s1,inactive: -13.1%,–
CCOC(=O)c1cc(S(=O)(=O)Nc2cc(F)ccc2C)[nH]n1,inactive: -7.7%,–
COc1ccccc1NC(=O)c1c(NCc2ccc(C)o2)sc2c1CCCCC2,inactive: 7.92%,–
O=C(OCc1ccccc1)c1ccc(O)cc1,inactive: 39.3%,–
CCc1ccc(NC(=O)Cn2c(=O)n(CCC(C)C)c(=O)c3cccnc32)cc1,inactive: -3.81%,–
COc1ccc(-c2cc(C(F)(F)F)n3nc(-c4ccccc4)cc3n2)cc1OC,inactive: -2.41%,–
CC(=O)Nc1nonc1-c1nnc(SCc2ccccc2F)n1C,inactive: -3.41%,–
CC(C)(C)C(=O)OCOC(=O)[C@@H]1N2C(=O)[C@@H](NC(=O)[C@H](N)c3ccccc3)[C@H]2SC1(C)C,inactive: 2.64%,–
Cc1ccc(/C=C/c2onc(C)c2S(=O)(=O)N2CCC(C(=O)Nc3ccccc3C(F)(F)F)CC2)cc1,inactive: -6.24%,–
CC(=O)c1ccc(N2CCN(c3ncnc4c3c(-c3ccccc3)cn4-c3ccc(Cl)cc3)CC2)cc1,inactive: -16.9%,–
CCCCSc1nnc2n(-c3ccc(OC)cc3)c(=O)c3c4c(sc3n12)COC(C(C)C)C4 (centres undefined),inactive: -23%,–
COc1cccc(CNC(=O)Cn2nc(-c3ccc(Cl)cc3)ccc2=O)c1,inactive: -1.96%,–
CC(=O)c1ccc(NC(=O)c2cc(C)nc3c2c(C)nn3-c2ccc(C)cc2)cc1,inactive: -31.7%,–
COc1ccc(-n2c(=O)c3c(c4cc(OC)ccc4n3C)n(Cc3cccc(C)c3)c2=O)cc1,inactive: -4.67%,–
CCC(C(=O)Nc1cccc(-c2nc3cccnc3s2)c1C)c1ccccc1 (centres undefined),inactive: -20.2%,–
COc1ccc(-n2cc(C(=O)NCCc3cc(OC)ccc3OC)c3ccccc3c2=O)cc1,inactive: -18.8%,–
CCOC(=O)c1c(C)[nH]c(C)c1S(=O)(=O)N1CCCC(C(=O)NCc2ccc(N(C)C)cc2)C1 (centres undefined),inactive: -8.68%,–
CC(C)CC(=O)Nc1nnc(S(=O)(=O)N(C)Cc2ccc(Cl)cc2)s1,inactive: 0.649%,–
CC1=C(C(=O)Nc2ccc(C)cc2C)C(c2cccs2)n2nc(SCc3cccc(C)c3)nc2N1 (centres undefined),inactive: -8.09%,–
CNC(=O)CSc1cn(CC(=O)N2CCCCCC2)c2ccccc12,inactive: -10.5%,–
COc1ccc(OC)c(NC(=O)CN2C(=O)CC(C)Sc3ccccc32)c1 (centres undefined),inactive: -14.2%,–
CC(=O)CCC(=O)O,inactive: -4.91%,–

SMILES,"activity change, negative = inhibition",Potency
O=C(CCOc1ccccc1)N(Cc1cccnc1)c1nc2ccc(Cl)cc2s1,inactive: -9.33%,–
CCOC(=O)c1ccc(NC(=O)CSc2nc3cc4ccccc4cc3[nH]2)cc1,inactive: -13.3% [at 11.5 µM],–
Cc1nc2nc(NC(=O)c3ccc(C(C)(C)C)cc3)[nH]n2c(=O)c1Cc1ccccc1,inactive: -10.6%,–
COc1ccc(CNC(=O)Cn2ccc3cc(S(=O)(=O)N4CCCCC4)ccc32)cc1OC,inactive: -15.7%,–
Cc1ccc(-n2c(=O)c3c4c(sc3n(Cc3cc(=O)n5ccccc5n3)c2=O)CCC4)cc1C,inactive: -2.37%,–
COc1cc(CN2CCN(S(=O)(=O)c3ccc(NC(C)=O)cc3)CC2)cc(OC)c1OC,inactive: -9.29%,–
C/C=C(/C(=C/C)c1ccc(OC(C)=O)cc1)c1ccc(OC(C)=O)cc1,inactive: -11.4%,–
CCOC(=O)c1sc2ccccc2c1S(=O)(=O)Nc1ccc(C(C)=O)cc1,inactive: -0.43%,–
Cc1cccc(Cn2c(=O)n(Cc3ccccc3)c(=O)c3c2c2cc(C)ccc2n3C)c1,inactive: -8.46%,–
CCn1cc(C(=O)NCCc2ccc(OC)c(OC)c2)c(=O)c2cc(S(=O)(=O)N3CCCCCC3)ccc21,inactive: -5.54%,–
CCc1ccc(N(CC)C(=O)Cn2nc(Cc3cccnc3)c3ccccc3c2=O)cc1,inactive: -24%,–
COc1ccccc1NC(=O)c1oc2ccccc2c1NC(=O)COc1cccc(C)c1,inactive: -1.94%,–
COc1ccc(Cl)cc1NC(=O)N(C)CCc1c(C)nn(C)c1C,inactive: 26.7%,–
Cc1ccc2oc(-c3ccc(C)c(NC(=O)C(C)(C)Oc4ccc(Cl)cc4)c3)nc2c1,inactive: 48.9%,–
CCc1cccc(-n2c(=O)c3cccnc3n2CC(=O)Nc2c(C)cc(C)cc2C)c1,inactive: -7.09%,–
COc1cc(S(=O)(=O)NCCc2c(C)[nH]c3ccccc23)c(C)cc1C,inactive: -13.9%,–
COc1ccc2nc(N(Cc3cccnc3)C(=O)Cc3ccccc3)sc2c1,inactive: -23.9%,–
CC(=O)N1CCc2cc(S(=O)(=O)C(C)CC(=O)Nc3ccc(Br)c(C)c3)ccc21 (centres undefined),inactive: -24.9%,–
CC(=O)Nc1ccc(S(=O)(=O)NC2=NCN(CCO)CN2)cc1,inactive: -7.31%,–
Fc1cccc(-c2nnn3c2nc(NC2CCCCC2)c2ccccc23)c1,inactive: -7.98%,–
COc1ccc(NC(=O)C2=C(C)Nc3ncnn3C2c2cccn2C)cc1 (centres undefined),inactive: -12.2%,–
COc1ccccc1CNC(=O)CN1C(=O)COc2ccc(S(=O)(=O)NC3CCCC3)cc21,inactive: 1.95%,–
CC1CCN(CC2CCN(C(=O)Nc3ccc(Br)cc3F)CC2)CC1,inactive: -2.8%,–
Cc1cccc(-n2c(CNC(=O)c3cccc(F)c3)nnc2SCC(=O)Nc2ccccc2F)c1,inactive: -8.59%,–

SMILES,"activity change, negative = inhibition",Potency
COc1ccc(Cc2cnc(N)nc2N)cc1OC,inactive: -2.03%,–
Cc1noc(C)c1S(=O)(=O)N(CC(=O)NCCc1ccccc1)c1ccc(C(C)C)cc1,inactive: -13.7%,–
CCOCCCN1C(=O)c2ccccc2CC1(C)C(=O)NC1CCCCC1 (centres undefined),inactive: -15.1%,–
COC(=O)c1ccccc1NC(=O)c1sc2nc(C)cc(C)c2c1NC(=O)c1ccccc1OC,inactive: -10.4%,–
COc1ccc(CNC(=O)CN2C(=O)CSc3ccc(S(=O)(=O)N4CCC(C)CC4)cc32)cc1,inactive: -21%,–
COc1ccc(/C=C/C(=O)Nc2nc(-c3cccs3)ns2)cc1,inactive: -16.2%,–
COc1ccc(-c2nc(S(=O)(=O)c3ccc(Cl)cc3)c(NCc3ccccc3)o2)cc1,inactive: -3.8%,–
COc1cc(-c2nc(Cn3nnc(C(=O)Nc4cccc(Cl)c4)c3C)c(C)o2)cc(OC)c1OC,inactive: -0.6%,–
COc1ccc(CNC(=O)C2CCC(CNS(=O)(=O)c3ccc4c(c3)CCCC(=O)N4)CC2)cc1 (centres undefined),inactive: -24.3%,–
Cc1ccc(-c2cn3c(n2)sc2cc(C(=O)NCCC4=CCCCC4)ccc23)cc1,inactive: 52.1%,–
CCOC(=O)CSc1nc2c(sc3ccccc32)c(=O)n1CCO,inactive: -26.3%,–
CCN(CC)CCCNc1ncnc2c1cnn2-c1ccc(C)c(C)c1,inactive: -10.3%,–
Cc1csc2nc(COc3cccc(NC(=O)c4ccccc4F)c3)cc(=O)n12,inactive: 0.3%,–
COc1ccc(OCC(O)Cn2c(NCCO)nc3c2c(=O)n(C)c(=O)n3C)cc1 (centres undefined),–,active: 14.1 µM
Cc1nn(CC(=O)N2CCN(c3ccc(Cl)cc3)CC2)c(=O)c2cccn12,inactive: 2.87%,–
Cc1ccc2nc(COc3ccccc3NC(=O)c3ccc(F)cc3)cc(=O)n2c1,inactive: -12%,–
O=C(CSc1nc2c([nH]c3ccccc32)c(=O)n1-c1ccc(Cl)cc1)c1ccccc1,inactive: -8.37%,–
O=C(CSC1=Nc2ccccc2N=C(c2ccc(F)cc2)C1)Nc1ccccc1,inactive: -14.3%,–
CCOc1ccc(NC(=O)c2c(NC(=O)Cc3ccccc3)sc3c2CCCCC3)cc1,inactive: 0.237%,–
Cc1ccc(-n2c(=O)c3c(c4cc(C)ccc4n3C)n(CC(=O)N3CCCC3)c2=O)cc1,inactive: -7.01%,–
CC(Cc1ccccc1)(NC(=O)CN)c1ccccc1 (centres undefined),inactive: -1.85%,–
COc1ccccc1CNC(=O)c1cn(C)c2ccc(S(=O)(=O)N(C)C3CCCCC3)cc2c1=O,inactive: -24.5% [at 11.5 µM],–
